# Measurements: article PMC4336329 (PLoS ONE, 2015)
# Out of some 310,000 compounds screened, about 2,200 (0.71%) showed an effect of 50% or more. The effect is printed as a negative number. This is one part of the list.
# Target: human ether-à-go-go-related gene (hERG) potassium channel (human, UniProt Q12809)
# Test: primary screen, population patch clamp on CHO cells stably expressing hERG
# human ether-à-go-go-related gene (hERG) potassium channel, sequence (Q12809 whole entry, looked up): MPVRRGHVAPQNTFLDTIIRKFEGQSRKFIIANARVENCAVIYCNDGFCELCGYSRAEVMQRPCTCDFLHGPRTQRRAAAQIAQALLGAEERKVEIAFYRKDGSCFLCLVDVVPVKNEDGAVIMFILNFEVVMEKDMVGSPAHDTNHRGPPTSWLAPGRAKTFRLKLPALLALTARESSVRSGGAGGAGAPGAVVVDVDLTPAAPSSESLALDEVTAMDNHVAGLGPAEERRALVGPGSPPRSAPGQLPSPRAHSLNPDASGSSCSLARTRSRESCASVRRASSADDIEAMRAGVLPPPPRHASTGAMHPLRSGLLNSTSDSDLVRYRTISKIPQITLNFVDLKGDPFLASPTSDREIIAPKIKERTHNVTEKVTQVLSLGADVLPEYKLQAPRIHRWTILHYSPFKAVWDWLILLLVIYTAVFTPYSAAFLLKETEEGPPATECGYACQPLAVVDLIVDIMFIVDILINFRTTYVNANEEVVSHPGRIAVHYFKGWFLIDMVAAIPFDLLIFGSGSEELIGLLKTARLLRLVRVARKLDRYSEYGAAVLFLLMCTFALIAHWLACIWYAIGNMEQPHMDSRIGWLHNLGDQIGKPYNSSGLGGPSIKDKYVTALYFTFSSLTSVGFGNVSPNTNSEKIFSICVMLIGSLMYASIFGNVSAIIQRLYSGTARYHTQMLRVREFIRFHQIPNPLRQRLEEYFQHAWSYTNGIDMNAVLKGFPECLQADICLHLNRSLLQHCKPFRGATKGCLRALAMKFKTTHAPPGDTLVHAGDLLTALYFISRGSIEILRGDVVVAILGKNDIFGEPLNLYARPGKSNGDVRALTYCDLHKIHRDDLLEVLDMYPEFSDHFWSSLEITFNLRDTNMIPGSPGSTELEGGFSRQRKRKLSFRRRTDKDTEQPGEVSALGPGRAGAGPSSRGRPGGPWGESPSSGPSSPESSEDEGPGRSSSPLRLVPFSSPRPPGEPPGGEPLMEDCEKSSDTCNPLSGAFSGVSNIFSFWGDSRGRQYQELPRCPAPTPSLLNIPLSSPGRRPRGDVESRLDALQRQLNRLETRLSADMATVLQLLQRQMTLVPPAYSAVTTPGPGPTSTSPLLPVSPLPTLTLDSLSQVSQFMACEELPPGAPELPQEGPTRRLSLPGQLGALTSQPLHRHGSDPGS
row,Structure (SMILES),"hERG current change (%, negative = inhibition) at 1uM [%]"
1,CCOc1ccc(CCNC(=O)CN2CCN(Cc3ccccc3C)C2=O)cc1OCC,7.86
2,Cc1ccc(NC(=O)CCN2C(=O)C3CCCCC3C2=O)c(O)c1 (centres unmarked),7.67
3,O=C(CCOc1ccccc1)Nc1ccnn1C1CCN(C(=O)CCC(F)(F)F)CC1,9.1
4,CN(C)c1ccc(C(=S)N2CCN(c3ccccc3)CC2)cc1,16.4
5,COc1ccc(S(=O)(=O)NCCc2cn3nc(C)c(C)nc3n2)cc1,16.1
6,CCN(CC)S(=O)(=O)c1ccc(NC(=O)COC(=O)CN2C(=O)c3ccccc3C2=O)cc1,-1.65
7,FC(F)C(F)(F)C(F)(F)C(F)(F)c1cc(-c2ccccc2)n[nH]1,9.58
8,COc1ccc(C2CC2/C(=N/OC(=O)c2cccs2)c2ccccc2)cc1 (centres unmarked),8.59
9,O=C(CN1CCN(Cc2ccccc2)CC1)c1c[nH]c2ccccc12,-23.3
10,O=C(C(=O)N1CCOCC1)c1cn(Cc2ccccc2F)c2ccccc12,7.14
11,Cc1ccc(CNC(=O)CN2C(C)CCCC2C)cc1 (centres unmarked),0.127
12,CCN(CC)C(=O)Cn1c(=O)n(-c2ccc(CC(=O)NCc3ccccc3)cc2)c(=O)c2sccc21,9.06
13,CNC(=S)N1CCc2cc(OC)c(OC)cc2C1,2.67
14,COc1cc(OC)c(OC)cc1/C=N/NC(=O)c1ccc(=O)n(C)c1,10.2
15,CC(OC(=O)Cc1c(F)cccc1Cl)C(=O)NCCC1=CCCCC1 (centres unmarked),3.96
16,COc1cccc(-c2nnn(CC(C)=O)n2)c1,1.66
17,S=C(NCc1ccncc1)Nc1ccc(Cl)cc1,5.24
18,CN(C)S(=O)(=O)c1ccc(-c2csc(-c3cccnc3)n2)cc1,9.09
19,CN(C)C(=O)[C@H]1C[C@H]1[C@@H](O)[C@H](CO)NC(=O)[C@H](COCc1ccccc1)NC(=O)OC(C)(C)C,12.7
20,Cc1ccccc1NS(=O)(=O)c1cc(C(=O)NCc2ccco2)ccc1C,4.24
21,O=C(Nc1cccc(C(=O)O)c1)/C(=C/c1ccc([N+](=O)[O-])cc1)NC(=O)c1ccccc1,2.55
22,Cn1cc(CC(=O)NCCCN2CCCC2=O)c2ccccc21,11.7
23,Cc1ccccc1CSCC(=O)NC(=O)NC(C)(C)C,-1.26

row,Structure (SMILES),"hERG current change (%, negative = inhibition) at 1uM [%]"
1,CC(=O)c1ccc(N2CCN(C(=O)c3ccc(OCc4c(C)noc4C)cc3)CC2)cc1,11.9
2,COc1ccc(/C=C2\CN(Cc3ccccc3)C/C(=C\c3ccc(OC)c(O)c3)C2=O)cc1O,13.1
3,CCC(=O)N1CCc2cc(Br)cc(S(=O)(=O)Nc3c(C)n(C)n(-c4ccccc4)c3=O)c21,13.7
4,COc1ccc(Cn2c(C)c(C)c(C#N)c2NC(=O)Nc2cccc(C)c2)cc1,14.2
5,CCN(C(=O)CSc1nnc(-c2ccncc2)n1C)C1CCS(=O)(=O)C1 (centres unmarked),11.6
6,Cc1ccc(NC(=O)C2CCN(S(=O)(=O)c3cnc[nH]3)CC2)nc1,12.7
7,Cc1cc2nc(/N=C(\N)NC(=O)C(C)C)nc(C)c2cc1C,21
8,C[C@@H]1CN(Cc2nc(-c3ccc(Cl)cc3)no2)C[C@H](C)O1,3.41
9,CC1=CCC2C(=O)N(c3cccc(C(=O)Nc4ccc(Cl)cc4)c3)C(=O)C2C1 (centres unmarked),3.06
10,CCN(CC)C(=O)CSc1nc(O)c(Cc2ccc(OC)cc2)c(=O)[nH]1,15.2
11,N#Cc1nc(-c2ccco2)oc1N1CCc2ccccc2C1,13.4
12,CCOc1ccc(CCNC(=O)C(CC)n2nc(C)n3c(cc4sccc43)c2=O)cc1OCC (centres unmarked),-1.76
13,COC(=O)c1sc(NC(=O)c2ccc(Cn3cc(Cl)cn3)o2)c(C#N)c1C,9.46
14,O=CC(Br)P(=O)(N1CCOCC1)N1CCOCC1 (centres unmarked),11.5
15,Cc1ccc(S(=O)(=O)N2CCCCC2)cc1NC(=O)CSc1ncnc2ccccc12,-0.402
16,CC(C)N1CCC(N2CCN(Cc3ccc4nsnc4c3)CC2CCO)CC1 (centres unmarked),5.31
17,O=C(CSc1nccn(-c2ccc(Br)cc2)c1=O)NC1CCCC1,9.58
18,COCCSc1nnc(NS(=O)(=O)Cc2ccccc2)s1,6.31
19,O=C(Nc1ccccc1)c1c(O)[nH]c(=O)[nH]c1=O,13
20,COc1cc(C(O)P(=O)(OCC(C)C)c2ccc(N(C)C)cc2)cc(OC)c1OC (centres unmarked),10.6
21,Cc1nc(C)n(C(C)CC(=O)O)n1 (centres unmarked),10.9
22,O=C(CSCc1c[nH]c(=O)[nH]c1=O)OCC(=O)c1ccc(Br)cc1,13.4
23,CC(=O)Nc1ccc(S(=O)(=O)NCCC(=O)N2CCN(C(c3ccccc3)c3ccccc3)CC2)cc1,3.9

row,Structure (SMILES),"hERG current change (%, negative = inhibition) at 1uM [%]"
1,O=C(NCCc1ccccc1)Nc1ccc(Cl)cc1,14.1
2,CCc1nnc(N/N=C/c2cc(Br)c(O)cc2O)n1N,13.6
3,CCCc1nc2ccccc2c(C(=O)OCC(=O)Nc2cccc(S(=O)(=O)N3CCOCC3)c2)c1CC,10.6
4,O=C(NCc1ccco1)c1ccc(COCC(F)(F)C(F)F)cc1,8.05
5,CCN(CC)C(=O)Cn1cc(S(=O)(=O)CC(=O)Nc2ccc(F)cc2)c2ccccc21,3.42
6,Cc1ccc(S(=O)Cc2ccc(C(=O)N3CCN(C4CCCCC4)CC3)o2)cc1 (centres unmarked),6.2
7,COc1ccc(S(=O)(=O)N2CCN(c3ncccn3)CC2)cc1,-2.83
8,CCCOc1ccc(C2Nc3cccc4cccc(c34)N2)cc1,15.7
9,CCOC(=O)c1sc(NC(=O)C2CC(=O)N(c3ccc(OC)cc3)C2)nc1C (centres unmarked),12
10,O=S(=O)(NCc1nnc2c(C(F)(F)F)cc(Cl)cn12)c1ccccc1,9.79
11,COc1ccc(OCC(O)CN2C(=O)c3ccccc3C2=O)cc1 (centres unmarked),17.9
12,Cc1c(C)c2ccc(OCC(=O)NC(Cc3c[nH]c4ccc(O)cc34)C(=O)O)c(C)c2oc1=O (centres unmarked),11.8
13,Cc1ccc(S(=O)(=O)Nc2cccc(C(=O)NCC(c3ccccc3)N(C)C)c2)cc1F (centres unmarked),-6.13
14,COc1ccc(S(=O)(=O)NC(C)c2ccccc2)cc1C(=O)N1CCCCC1 (centres unmarked),9.02
15,CCCC[C@@H]1CNC(=S)N1CC1CCCCC1,11.5
16,CC1(C)Cc2cccc(OCC(=O)OCc3nnc(-c4ccc([N+](=O)[O-])cc4)o3)c2O1,0.342
17,CC1=CC(C)(C)Nc2ccc(OC(=O)C(C)N3C(=O)c4ccccc4C3=O)cc21 (centres unmarked),4.13
18,COc1ccc(NC(=O)c2ccco2)cc1NC(=O)c1cccs1,-2.83
19,CSc1ccccc1NC(=O)Nc1ccc(F)c(Cl)c1,0.602
20,CNC(=S)NNC(=O)c1sccc1OCc1cccc(C(F)(F)F)c1,20.9
21,CSc1ccc(C#N)cc1NC(=O)c1ccc(Cl)cc1,9.22
22,Clc1ccc(-c2cn3cc(Cl)ccc3n2)cc1,14.1
23,O=S1(=O)[C@H]2C[C@@H]3C=C[C@@]2(CN1Cc1ccccc1F)O3,10.3

row,Structure (SMILES),"hERG current change (%, negative = inhibition) at 1uM [%]"
1,COc1ccccc1S(=O)Cc1ccc(C(=O)O)o1 (centres unmarked),-1.75
2,C=CCn1c(SCc2ccc(C#N)cc2)nnc1-c1cccc(OC)c1,-45.5
3,CCOc1cccc(CN2CCCC(C(=O)Nc3cccc(-n4cccn4)c3)C2)c1 (centres unmarked),2.24
4,COC(=O)c1ccccc1NC(=O)CSc1ncn[nH]1,11.3
5,CCOC(=O)CSc1nnc(NC(=O)NC(C)C)s1,5.58
6,CCC(=O)Nc1ccc(C(=O)NNC(=O)Cc2ccccc2)cc1,-1.16
7,Cc1ccc(/C=N\NC(=O)/C(=C\Nc2nccc(C)n2)NC(=O)c2ccccc2)cc1,3.8
8,O/N=C1\CCCc2oc3c(c21)CCCC3,7
9,COc1ccc2cnn(Cc3ccccc3)c(=O)c2c1OC,4.1
10,O=C(NNc1c(Cl)cccc1Cl)c1cccs1,4.53
11,CCS(=O)(=O)Nc1cccc(C2=NN(C(=O)c3ccco3)C(c3ccco3)C2)c1 (centres unmarked),10.5
12,Cc1c(C)n(-c2ccccc2)c2ncnc(NCCN(C)C)c12,9.82
13,Cc1ccc(-c2ccc(/C=N/O)o2)cc1[N+](=O)[O-],6.04
14,COC(=O)C(NNc1ccccc1)(NC(=O)c1cccc(F)c1)C(F)(F)F (centres unmarked),13.2
15,CC(=O)NC(=S)Nc1ccccc1N1CCCCC1,-6.16
16,Cc1ccc(N=Nc2c(C)[nH]n(-c3ccccc3)c2=O)cc1,2.6
17,O=C(NCC1COc2ccccc2O1)c1ccco1 (centres unmarked),-0.73
18,O=C(C1CC1)N1CCc2cc(Br)cc(S(=O)(=O)N3CCOCC3)c21,5.23
19,CC(=O)Nc1ccc(S(=O)(=O)NCCC(=O)OCc2nnc(-c3ccccc3)o2)cc1,3.61
20,Cc1ccc(N)cc1S(=O)(=O)N(C)C,13.8
